Laboratory results from paper PMC10726135.
Some of the results follow. At the low end of the ranking the order means little. Measured with an extract: partners may take part in the binding.

Each sequence was assayed against T1, HNF4alpha8 (COS-7 nuclear extract) (UniProt P41235-5) (assay: protein-binding microarray). Conditions: COS-7 nuclear extract on double-stranded Agilent 4x180k PBM; binding buffer, salt, pH and temperature not given; high values mean tight binding; double strand, one strand shown; sequences stand for … in …GCCTAGGGAGATTAGAGTATCGGTCGA.
T1 sequence: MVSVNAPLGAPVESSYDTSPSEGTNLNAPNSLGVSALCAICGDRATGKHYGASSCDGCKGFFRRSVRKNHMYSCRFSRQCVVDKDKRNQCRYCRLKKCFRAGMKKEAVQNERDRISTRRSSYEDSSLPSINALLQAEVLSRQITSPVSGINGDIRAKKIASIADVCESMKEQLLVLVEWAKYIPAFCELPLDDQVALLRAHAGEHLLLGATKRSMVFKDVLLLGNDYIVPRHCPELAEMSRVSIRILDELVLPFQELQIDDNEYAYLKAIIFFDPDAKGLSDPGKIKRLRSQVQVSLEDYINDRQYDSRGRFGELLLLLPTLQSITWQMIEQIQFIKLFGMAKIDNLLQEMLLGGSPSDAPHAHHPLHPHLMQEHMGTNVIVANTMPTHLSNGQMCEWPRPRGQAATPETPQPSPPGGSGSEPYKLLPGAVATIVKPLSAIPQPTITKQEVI

| Sequence | binding signal (log2 normalized intensity) |
| --- | --- |
| GACACAAAGAGACAAAGCTTTGAAGATGCT | -1.35 |
| ACACTTGTATGACCTTTGTTTTATTGTCAT | 4.51 |
| ATAATCAGAGGCCTGATTATCAGGTGCCTG | 0.101 |
| ACCTTGATGCTGGACTTCAGCCTCCAGAAC | 4.55 |
| TGATAAAGGGGGCAAAGGGCATGGGCAGCT | 4.41 |
| ATGTGCTTCATGGAGAGAATTCCCATCCCA | -1.31 |
| GGTCCCTAGGAGATACGCCTGAACTTTGAT | 4.18 |
| TCTTTAGGCCAAACAAAAATATGGACTTTG | 6.57 |
| GTAGGACAGAGTAAAGCCACTGCCTAGATA | -1.28 |
| TTCCTAACAGTGAATGTTTCGTAATATTTA | -0.755 |
| CAAATTAAACAGCATTTGTTTTAAGTTCAT | 0.628 |
| ACAGGGTGGCTTTGATCTGGGTGGGGGTGG | 0.153 |
| TTTAGATTTTCTCACTCTAAAGGAAGGGAT | -1.33 |
| GGAAAACTACCCCTGCCTAAACAAGGCAGA | -1.21 |
| ATTCCTTTTTCACTGCTCACAGGTTGTACT | 2.15 |
| ATTAAACACAGTTGCCTATGCCCTTTGAAA | 3.08 |
| ACATTCCTTGTGTTTTGGGGACAGAAGGCA | 1.18 |
| GAAAGAGGTCAATGTACTTACAGCTGGAAG | 1.49 |
| AGTCTTGAGTCCCAAAGTCCAAAGGCAGTC | 3.61 |
| ACATTCCAGAAAAGGCCTAAAAGGTTATCT | 0.598 |
| TTGGAGAATGCCTTTTGTGTAGGAGTACAC | 1.46 |
| GGTTCTGCAGGTTCATGGGAGAGCACTTGG | -0.0597 |
| TGACCTTTGCCTCATTCTTATTGCCTCATG | 4.2 |
| CTACAGAACCTCCCTCCCCATCTCCCCAGA | 5.18 |

| Sequence | binding signal (log2 normalized intensity) |
| --- | --- |
| AAGCCCAGAACACTCTACCCCCTCCCACTT | 4.27 |
| ACATACCTTAGGCTGTGCATATTGGTTTAC | 1.36 |
| TCTGTCTTGGACTGCGAAAGATAAAAGGCC | 0.327 |
| GAGGATGACCTTCCCTGCAGAAAAGGCCCC | 2.02 |
| TTTGTAACTTCTTGGCCTGCATAGCACTTT | 1.28 |
| GGCACTCCCAGGATAATGGAGAAGATAAGC | -1.3 |
| TGTGAGTCACAAACAGTACTGACATCTATC | -0.859 |
| AGCTCTTTTGAACCCAAGGCCAAACACGGA | 1.04 |
| TTGGTCTGAACCTCATCTGTGTAGAAATTG | 1.49 |
| GATGCAGAACAAGGTAGCCACAGAATGACT | -1.32 |
| TGGGTATGTCTGTAGGTAAGCACAAAGTAC | 2.16 |
| TTCACATTCCATCATCACGGTGGACATTGT | 3.47 |
| CCTTTCATGTACTGTTCAGTTCCTATTTCA | 0.81 |
| TATGTGCTGACTGACTCCTGTTACTTCCAC | 0.0957 |
| AAGGAATAAAATAGCTGCCTGTGTGTTCTG | 0.798 |
| GTGCTGACTAAGAGGAGAAGCAAATGAAAA | -1.33 |
| AGATAAATGCCTTAGCTGTGACCATCTCCT | -1.33 |
| AGTCTAACTTTGGACTTTTATGTTAAGATC | 2.93 |
| TCCAAACTGCAACCTGATAAGATTTTAGAA | -1.31 |
| ATGGACATAGTAACAACCTAAATCAGAGCA | -1.4 |
| AAGCGGCTGGCTTTAAGGTCACATAGCAGG | 1.03 |
| GGGCCACTCAGTTGAAGTTCCAGAAGACTA | -1.35 |
| GTCAAAGGTTGATGGTATGTTTCAGCCAAG | 0.0323 |
| TGCAAGGCTGTTGGCAGATTAGATATATCT | -0.884 |

| Sequence | binding signal (log2 normalized intensity) |
| --- | --- |
| GTCACTGTATGCCCGAAAGACGCGGAGCGG | 0.452 |
| TTTGAGGGCTCAAAGGTTACCACCCAGGAG | 4.22 |
| AAGGTGAAGCCCAGCAGCTCCAGGAGACGT | -1.04 |
| GCACGTTAGAGAAAAAGCCCAAGAAACTTC | -1.29 |
| GCAATAAACTCCGTTATCACTCCTGGTTGG | -0.605 |
| CTTGGCTGTGTCCCTTGACCAAAGGTCACT | 7.67 |
| TGGAATACAGCAGGGTAGAAAAGAGTTAAA | -1.22 |
| CTCAGTATGGCAACCTTTGTCCTGCTGAGG | 4.48 |
| AGGCTCAGTGGGCGTTGACTGATCCCTCTG | 0.99 |
| ATGGCTGCAGCTCTTCCACGTGAGATAAGC | -1.28 |
| GTAGACTAAAACCCATATCTGACTGATGCT | -1.35 |
| GTGTGTCTGTAGTTTTCGTTGTCTAATCCT | 1.29 |
| GATTGCGCCACTGCATTCCAGCCTGGGGCA | -1.29 |
| ATGGCAGACGGGGCTCTCAGAATCTGCCGA | -0.908 |
| TGGCCAGTATCCGCCTTCACTCCCCTGACA | 1.92 |
| TTCCTTCGGGATTATGGTAGGCAGCCTCTG | -1.28 |
| GAGAGAAATTGCTTAAGTGCTTGTCAGTTT | 1.16 |
| AGATGGGGTGAACTTTGGACCACATATAGA | 7.98 |
| AATTGTGTGGTTATCTGTTGGGGAATCAGT | 1.45 |
| GCACAAAGTACAAAAGAGGCTTCCTGGGCC | -1.14 |
| AAACAAATAATGGCTTTTGCCCTCAAGGAG | 2.02 |
| CTAGGTCAGCAGTTGTTCAAAGTCCATGTG | 5.98 |
| GGTCCACAGCTTTGGGCATACAAAACAACC | -1.22 |
| CCTAGCTGAGCAGGGGACTAAGAGCAGCCT | -1.1 |

| Sequence | binding signal (log2 normalized intensity) |
| --- | --- |
| AGACTGGCTCCGCTGCTGCAGAGCAAAGCT | -1.39 |
| GAGCACAAGAACAAAAACTGTTTCTATGTG | -1.22 |
| ACACACAGCACTGCAAACAGTGAGCCCAGT | -1.23 |
| AAGGTCAGCGCTTTGGTAGGCTGTATGGCT | -1.2 |
| TTGAAGTGCTTCCTGTGTATTTCTTCATCA | 0.924 |
| AAGCTATCCCTCCATATTGCAGACAGCATA | -1.03 |
| TCTGAGTAAACACAGACTTTGGAATCACAA | 3.77 |
| GTTAGACGCACGGCAGAGCACCTGGATAAG | -1.3 |
| AACTATGCTAAGAATGCGAACCATTTCCCA | -1.32 |
| GGCTAATGCATGTCCCTCCTCAACCTCTCC | 1.05 |
| AAGCACTGAGCATACAGAACCCATGCTCTT | -1.24 |
| TCACAAGACTGTTATCACAGCTGGCCCACT | -1.22 |
| AGGTCCTTGAAAGTAAGCAGACACTGAAAG | -1.28 |
| CATCTGCAAGAGAGAATAGATAGTGTGAGG | 0.532 |
| GGGTCATGCTGGTCTCCTTGCCCCACCCCC | 5.73 |
| CGTCTTACATTTCTAAAGAACATTCCAGCT | -1.35 |
| TGTGACTGATAAATCCCGAGCCAGAGCCAA | -1.44 |
| GTGCTCTGGGTCTGTCCTTTGTGTTTATGG | 2.63 |
| CACTGGCCAAAGGTAATAGGAAAAGGGAGT | -1.29 |
| AGCTAGTAGGAGCGGGCTTAACTAGGAGCC | -1.39 |
| TATCTTTCTCCTACAGCCTGATGTTGACAG | 0.0465 |
